Assay results as given in PubChem BioAssay AID652106 (National Center for Advancing Translational Sciences (NCATS), 2013).
Hit rate of the full screen: of about 370,000 compounds, about 500 (0.14%) were called active. The shares of active, inactive and inconclusive entries below differ from those in the screen. Calls come from the whole dose curve; as a rule, active = well fitted activation curve with a large enough effect; inconclusive = small, poorly fitted or top-dose-only effect; inactive = no such curve, though single readings can be large or run the other way. Potencies of inconclusive entries are left out as doubtful fits.
Potency is the fitted concentration of half-maximal effect; tags give direction and shape of the fitted curve.

Assay: qHTS of alpha-syn Inhibitors; note: nearly all actives have a fitted effect of over 65% in size; for growth rescue (activation): % of control where 0% means no effect
Details: Yeast expressing alpha-synuclein, BacTiter-Glo, 24 h; Potency: growth rescue unless noted; growth rescue (activation): at 46.1 µM (top of the series) unless noted
Method in brief: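 Readout is rescue of growth in alpha-synuclein-expressing yeast, so inhibitors of toxicity appear as activators. Growth after 24 hr at 30 deg C in galactose medium is quantified by luminescence.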
For `CN1CCCN(C2C3CC4CC(C3)CC2C4)CC1` (stereo unspecified), the “growth rescue (activation)” value was inactive: 1.03%.
For `Cc1nc(SCC(=O)Nc2nc3ccccc3s2)c(C#N)c(C)c1C`, the Potency was inconclusive [activator, single point].
With `O=C(CSc1nc2ccccc2c2c1CCCC2)N1CCOCC1` the Potency was inconclusive [activator, single point].
In the case of `O=C(NCCOc1ccccc1Cl)c1cc(F)c(F)cc1Cl`, the “growth rescue (activation)” value is reported as inactive: 13.6%.
For `CC1(C(=O)NS(=O)(=O)c2cccs2)CCN1C(=O)Cc1ccc(Cl)cc1Cl` (stereo unspecified), the Potency was inconclusive [activator, single point].
For `CN(C)c1ccc(/C=N/N=C2/NC(=O)/C(=C/c3ccc([N+](=O)[O-])cc3)S2)cc1`, the “growth rescue (activation)” value was inactive: 15.9%.
In the case of `COc1ccc(C(=O)c2c(C)oc3cc([N+](=O)[O-])c(O)c([N+](=O)[O-])c23)cc1`, the growth rescue (activation) is reported as inconclusive: -63% [activator].
In the case of `COc1ccc(CN2C(=O)C(CC(=O)NCc3cccc4ccccc34)CC(C(=O)N(C(C)C)C(C)C)=C2C)cc1` (stereo unspecified), the Potency is reported as inconclusive [activator, single point].
With `CCOc1ccccc1CN1CCNC(=O)C1CC(=O)N(C)Cc1cnccn1` (stereo unspecified) the “growth rescue (activation)” value was inactive: -1.54%.
With `CCOC(=O)[C@H]1[C@H]2COc3ccc(Cl)cc3[C@@H]2N2C(=O)CN(Cc3ccc(C)cc3)C(=O)[C@@]12C` the Potency was inconclusive [activator, single point].
For `COc1cccc(-c2nnc(NC(C)=O)o2)c1`, the “growth rescue (activation)” value was inactive: -3.8%.
For `Cc1occc1C(=O)NNC(=O)c1nn(C)c(=O)c2ccccc12`, the Potency was inconclusive [activator, single point].
In the case of `N#CC1=C(Nc2ccccc2Cl)SC2(CCCC2)NC1=O`, the Potency is reported as inconclusive [activator, single point].
For `Cc1cccc(Cn2c(COc3ccccc3)nc3ccccc32)c1`, the Potency was inconclusive [activator, single point].
In the case of `Cc1ccc(C(=O)CSc2nnc(-c3ccco3)n2Cc2ccccc2)cc1`, the “growth rescue (activation)” value is reported as inactive: 6.61%.
In the case of `COc1cc(/C=C/c2cc[n+](C)c3ccccc23)cc(OC)c1OC`, the “growth rescue (activation)” value is reported as inactive: 16.2%.
With `Cc1cc(C)c2nc(N3C(=O)C(O)=C(C(=O)c4ccco4)C3c3cccc(O)c3)sc2c1` (stereo unspecified) the “growth rescue (activation)” value was inactive: 14.5%.
With `Cc1cc(/C=N/n2cnnc2)c(C)n1-c1ccc(OCc2ccccc2F)cc1` the Potency was inconclusive [activator, single point].
In the case of `CCNC(=O)N1CCN(/[N+]([O-])=N/Oc2ccc([N+](=O)[O-])cc2[N+](=O)[O-])CC1`, the “growth rescue (activation)” value is reported as inactive: -47.6%.
For `Cc1ccn2c(c1)nc(=O)c1cc(S(=O)(=O)N3CCCCC3)c(Cl)cc12`, the Potency was inconclusive [activator, single point].
With `CCN(CC)S(=O)(=O)c1ccc(N2CCOCC2)c(NC(=O)c2ccc(F)cc2)c1` the “growth rescue (activation)” value was inactive: 2.15%.
With `Cc1c(N(CC(=O)O)S(=O)(=O)c2ccccc2)c(=O)n(-c2ccccc2)n1C` the “growth rescue (activation)” value was inactive: -0.581%.
In the case of `COc1ccc(CNC(=O)C(C)OC(=O)c2cccs2)cc1` (stereo unspecified), the Potency is reported as inconclusive [activator, single point].
In the case of `O=C(NCc1ccccc1)C1c2ccccc2OCC(=O)N1Cc1ccco1` (stereo unspecified), the Potency is reported as inconclusive [activator, single point].
For `COc1cccc(/C=N/NC(=O)CCn2c3ccccc3c3ccccc32)c1`, the Potency was inconclusive [activator, partial curve, poor fit].
With `COc1ccc(C(C(=O)NC2CCCCC2)N(C(=O)CCl)c2ccccc2Cl)cc1` (stereo unspecified) the Potency was inconclusive [activator, single point].
With `O=C(O)c1ccc(N2CCc3ccccc32)c([N+](=O)[O-])c1` the Potency was inconclusive [activator, single point].
In the case of `Cc1ccc(C)c(NS(=O)(=O)c2ccc3[nH]c(=O)oc3c2)c1`, the “growth rescue (activation)” value is reported as inactive: 0.302%.
With `[O-][n+]1nc2ccccc2c2ccccc21` the Potency was inconclusive [activator, single point].
With `N#Cc1nc(Cc2cccc3ccccc23)oc1NCc1ccc(F)cc1` the “growth rescue (activation)” value was inactive: 11.3%.
For `O=C(CNC(=S)N(Cc1ccccc1)Cc1ccccc1F)NCCc1ccccc1`, the Potency was inconclusive [activator, single point].
With `COc1cccc(NC(=O)CCSc2ccc3ccccc3n2)c1` the “growth rescue (activation)” value was inactive: 13.2%.
For `COc1ccc([C@H]2N[C@]3(CCCN(Cc4ccc(F)cc4)C3=O)[C@H]3C(=O)N(Cc4ccccc4)C(=O)[C@@H]23)cc1`, the “growth rescue (activation)” value was inactive: 0%.
With `COC(=O)c1ccc(N/C=C/C(=O)c2ccc(OC)c(OC)c2)cc1` the Potency was inconclusive [activator, partial curve].
In the case of `Cc1ccc(OCC(=O)NNC(=S)NC(=O)C2CCCCC2)c(C)c1`, the Potency is reported as inconclusive [activator, partial curve, poor fit].
In the case of `Cc1ccc(-c2cc(-c3ccccc3Cl)[nH]n2)c(O)c1`, the “growth rescue (activation)” value is reported as inactive: -49.3%.
With `Cc1ccc(N2CCN(S(=O)(=O)c3cccs3)CC2C)cc1` (stereo unspecified) the Potency was inconclusive [activator, single point].
In the case of `O=C(O)CSc1nc2c(c(C(F)(F)F)n1)CCCC2`, the Potency is reported as inconclusive [activator, single point].
In the case of `CC/C(=C(/CC)c1ccc(O)cc1)c1ccc(O)cc1`, the Potency is reported as inconclusive [activator, single point].
For `O=C(Cn1ncc(Cl)c(Cl)c1=O)c1ccc2c(c1)OCCO2`, the Potency was inconclusive [activator, single point].
In the case of `CC1CCN(S(=O)(=O)c2ccc(NC(=O)CCN3C(=O)c4ccccc4C3=O)cc2)CC1`, the Potency is reported as inconclusive [activator, single point].
With `O=C(OCCN1C(=O)c2ccccc2C1=O)c1cnccn1` the Potency was inconclusive [activator, single point].
In the case of `Cc1[nH]c(=S)c(C#N)c(-c2ccco2)c1C(=O)N(C)C`, the “growth rescue (activation)” value is reported as inactive: -3.53%.
In the case of `COc1cc(N(C)C)c(OC)cc1/C=C1\Cc2ccccc2C1=O`, the “growth rescue (activation)” value is reported as inactive: 0.298%.
In the case of `CCOC(=O)C1CCN(C2CC(=O)N(c3cccc(Cl)c3)C2=O)CC1` (stereo unspecified), the growth rescue (activation) is reported as inconclusive: -96.9% [activator].
With `COC(=O)c1cc(NC(=O)COC(=O)CCc2c[nH]c3ccccc23)cc(C(=O)OC)c1` the “growth rescue (activation)” value was inactive: -0.049%.
